Measurements published in PubChem BioAssay AID463173 (ICCB-Longwood Screening Facility, Harvard Medical School, 2010).
About 1,700 (3.3%) of roughly 52,000 compounds were called active. Rule as the data show it: active = survival mostly below about 52% (no sharp cut-off); inactive = mostly above about 56%. The list shows a part of the results.

These compounds were tested on Wild type (assay: growth inhibition of S. aureus wild type versus tarO mutant, primary screen, teichoic acid synthesis inhibitors, RN4220, OD600 (AID 463173)). Settings: S. aureus RN4220 wild type/DeltatarO growth, OD600, 18 h, stronger effect = lower value, screened at 18.75 µg/mL (by protocol).

Compound	survival
CCOC(=O)c1cc(-c2ccc(F)cc2)n(CCC(=O)NC2CCCCC2)c1C	inactive: 77%
CC(=O)Nc1ccc(C(=O)CSc2nnc3ccc4ccccc4n23)cc1	inactive: 86%
CCOc1ccc(NC(=O)NCCN2CCN(c3ccccc3F)CC2)cc1	inactive: 72%
O=S(=O)(NCc1ccc(Cl)cc1)c1ccc(N2CCCCS2(=O)=O)cc1	inactive: 132%
c1ccc2c(c1)nc(N1CCOCC1)c1ccccc12	inactive: 127%
COc1cccc(NC(=O)c2ccc(-c3nc(COc4ccc(C)cc4)c(C)o3)cc2)c1	inactive: 70%
Cc1cc(=O)n2nc(N3CCC(C(=O)Nc4ccc(Br)cc4F)CC3)sc2n1	inactive: 92%
Cc1ccc2c(c1)c1c(c(=O)n(-c3ccccc3C)c(=O)n1CC(=O)NCC1CCCO1)n2C (centres undefined)	inactive: 66%
O=C(O)c1cccnc1N1CCOCC1	inactive: 111%
Cc1ccc(C)c(NC(=O)CCCN2C(=O)C(c3ccccc3)Oc3cccnc32)c1 (centres undefined)	inactive: 89%
Cc1nc2nc[nH]n2c(=O)c1NC(=O)CC12CC3CC(CC(C3)C1)C2	inactive: 101%
COC(=O)CN(c1ccccc1)S(=O)(=O)c1ccc(OC)cc1	inactive: 102%
Nc1c(C(=O)Nc2ccc(Br)cc2)sc2nc(-c3ccncc3)ccc12	inactive: 103%
O=C(CNC(=O)c1ccc(Cl)cc1)OCc1cc(=O)n2nc(C3CCCCC3)sc2n1	inactive: 138%
COc1cc2c(=O)n(CCC(=O)NCC3CCCO3)c(=O)n(CC(=O)Nc3ccc(F)cc3)c2cc1OC (centres undefined)	inactive: 129%
CCc1ccc(-n2c(CCC(=O)O)ccc2-c2ccc(F)cc2)cc1	inactive: 68%
COc1ccc(S(=O)(=O)N(CC(=O)Nc2cccnc2)c2ccc(C)cc2)cc1OC	inactive: 71%
CCN(CC)NC(=S)Nc1ccccc1	inactive: 101%
Cc1ccc(O)c(NC(=O)CCS(=O)(=O)c2nc(-c3ccc4c(c3)OCO4)cc(C(F)(F)F)n2)c1	inactive: 98%
CCOC(=O)CSc1nnc(CNc2ccc(C)cc2C)n1-c1ccccc1	inactive: 105%

Compound	survival
CCc1ccc(CNC(=O)CCn2c(=O)c3cccn3c3ccc(F)cc32)cc1	inactive: 113%
COc1cccc(=O)c2c(C)oc(C)c12	inactive: 107%
Cc1ccc(-n2nnc(-c3nsc(NC(=O)c4ccc(C)c(C)c4)n3)c2C)cc1	inactive: 121%
CCn1c(CN2CCCCC2)nc2cc(NC(=O)c3ccc([N+](=O)[O-])cc3)ccc21	inactive: 81%
CCOc1ccccc1NC(=O)COc1ccc(S(=O)(=O)NC2CCCCC2)cc1	inactive: 75%
O=C(Nc1ccc(F)c(F)c1)C1CCCN1S(=O)(=O)c1cccc2nsnc12 (centres undefined)	inactive: 77%
CCN(CC)c1ccc(/C=N/NC(=O)CC(C)C)cc1	inactive: 113%
N#Cc1ccccc1CNCc1cccs1	inactive: 113%
CCOc1ccccc1CNC(=O)c1cc(-c2ccc(C)c(C)c2)nc2ccccc12	inactive: 71%
COc1cccc(C=Nc2cnn(C)c2C(N)=O)c1O	inactive: 105%
CCCS(=O)(=O)N1CCC(n2c(C(F)(F)F)nc3cccnc32)CC1	inactive: 78%
Cc1ccsc1CN(C(=O)c1oc2ccccc2c1C)C1CCS(=O)(=O)C1 (centres undefined)	inactive: 83%
Cc1ccc(CNC(=O)C(=O)NCC(c2cccnc2)N2CCN(c3ccccc3F)CC2)cc1 (centres undefined)	inactive: 78%
COc1cccc2sc(N3CCN(C(=O)CCS(=O)(=O)c4ccc(F)cc4)CC3)nc12	inactive: 87%
O=C(c1ccccc1)N1CCN(C(=O)c2cc3ccccc3oc2=O)CC1	inactive: 106%
CC(C)Oc1ccc(CNC(=O)C2CCN(c3nc4ccccc4n(C)c3=O)CC2)cc1	inactive: 96%
CCc1ccc(C2NC(=O)c3[nH]nc(-c4cccc(OC)c4)c32)cc1 (centres undefined)	inactive: 74%
Cc1ccc(S(=O)(=O)C(=O)Nc2cccc3nsnc23)cc1	inactive: 93%
Cc1ccc(NC(=O)Cn2nnc(C(=O)NCCc3ccccc3)c2N)cc1C	inactive: 64%
Cc1oc2ncn(C)c(=O)c2c1C(=O)NCCCN(Cc1ccccc1)C(C)C	inactive: 81%

Compound	survival
CCn1c(=O)c2sccc2n2c(CCC(=O)Nc3ccc(OC)c(Cl)c3)nnc12	inactive: 71%
Cc1ccc(C(=O)Nc2nc(-c3ccccc3)ns2)cc1	inactive: 68%
CS(=O)(=O)N1CCc2cc(C(=O)Nc3cccc(F)c3)ccc21	inactive: 81%
COc1cccc(C(=O)N2CCN(Cc3cccc(C)c3)CC2)c1OC	inactive: 109%
COc1ccccc1CC(=O)Nc1ccc2nc(N3CCC(C)CC3)cc(C)c2c1	inactive: 71%
Cc1ccc(C)c(Cn2c3ccccc3c3cnn(CC(=O)NC(C)c4ccccc4)c(=O)c32)c1 (centres undefined)	inactive: 83%
CCCNC(=O)CN1CCN(c2ncc(NC(=O)c3ccc(Cl)cc3)cc2C(=O)O)CC1	inactive: 101%
CCOC(=O)c1ccc(-c2ccc(/C=C(\C#N)C(=O)Nc3ccc(C)cc3OC)o2)cc1	inactive: 92%
COCCNC(=O)Cn1ncc2c(C)n(Cc3ccc(C)cc3)c(C)c2c1=O	inactive: 83%
CCCCN1C(=O)C(O)(c2c(C)[nH]c3ccccc23)c2ccccc21 (centres undefined)	inactive: 69%
CCCOc1ccccc1C1Oc2nc(SC)nnc2-c2ccccc2N1C(C)=O (centres undefined)	inactive: 73%
Cc1cccc(-n2ncc3c(N4CCCCCC4)ncnc32)c1	inactive: 73%
Cc1ccc(CN(Cc2ccco2)C(=O)c2oc3ccc(C)cc3c2C)cc1	inactive: 92%
Cc1ccc(C)c(CNC(=O)c2cnc3sc(N4CCCC4)nn3c2=O)c1	inactive: 75%
CCOc1ccc(C(=O)c2cn(Cc3ccc(F)cc3)c3ccc(F)cc3c2=O)cc1	inactive: 86%
CSc1ccc(C2c3c(oc4ccccc4c3=O)C(=O)N2CCCN2CCOCC2)cc1 (centres undefined)	inactive: 73%
CC(C)(C)C(=O)OC1=CN(Cc2ccccc2)S(=O)(=O)c2ccccc21	inactive: 75%
CCc1ccc(NC(=O)CSc2nc3ncccc3[nH]2)cc1	inactive: 75%
O=S(=O)(c1ccccc1)c1nc(-c2ccc(F)cc2)oc1N1CCCCCC1	inactive: 19%
